Measured values: paper PMC4336329 (PLoS ONE, 2015)
The campaign covered roughly 310,000 compounds. About 2,200 (0.71%) showed an effect of 50% or more. Effects have a minus sign here. The list shows a part of the results.

Biological target: human ether-à-go-go-related gene (hERG) potassium channel (human, UniProt Q12809)
Assay: primary screen, population patch clamp on CHO cells stably expressing hERG

Sequence of human ether-à-go-go-related gene (hERG) potassium channel (Q12809 whole entry, looked up): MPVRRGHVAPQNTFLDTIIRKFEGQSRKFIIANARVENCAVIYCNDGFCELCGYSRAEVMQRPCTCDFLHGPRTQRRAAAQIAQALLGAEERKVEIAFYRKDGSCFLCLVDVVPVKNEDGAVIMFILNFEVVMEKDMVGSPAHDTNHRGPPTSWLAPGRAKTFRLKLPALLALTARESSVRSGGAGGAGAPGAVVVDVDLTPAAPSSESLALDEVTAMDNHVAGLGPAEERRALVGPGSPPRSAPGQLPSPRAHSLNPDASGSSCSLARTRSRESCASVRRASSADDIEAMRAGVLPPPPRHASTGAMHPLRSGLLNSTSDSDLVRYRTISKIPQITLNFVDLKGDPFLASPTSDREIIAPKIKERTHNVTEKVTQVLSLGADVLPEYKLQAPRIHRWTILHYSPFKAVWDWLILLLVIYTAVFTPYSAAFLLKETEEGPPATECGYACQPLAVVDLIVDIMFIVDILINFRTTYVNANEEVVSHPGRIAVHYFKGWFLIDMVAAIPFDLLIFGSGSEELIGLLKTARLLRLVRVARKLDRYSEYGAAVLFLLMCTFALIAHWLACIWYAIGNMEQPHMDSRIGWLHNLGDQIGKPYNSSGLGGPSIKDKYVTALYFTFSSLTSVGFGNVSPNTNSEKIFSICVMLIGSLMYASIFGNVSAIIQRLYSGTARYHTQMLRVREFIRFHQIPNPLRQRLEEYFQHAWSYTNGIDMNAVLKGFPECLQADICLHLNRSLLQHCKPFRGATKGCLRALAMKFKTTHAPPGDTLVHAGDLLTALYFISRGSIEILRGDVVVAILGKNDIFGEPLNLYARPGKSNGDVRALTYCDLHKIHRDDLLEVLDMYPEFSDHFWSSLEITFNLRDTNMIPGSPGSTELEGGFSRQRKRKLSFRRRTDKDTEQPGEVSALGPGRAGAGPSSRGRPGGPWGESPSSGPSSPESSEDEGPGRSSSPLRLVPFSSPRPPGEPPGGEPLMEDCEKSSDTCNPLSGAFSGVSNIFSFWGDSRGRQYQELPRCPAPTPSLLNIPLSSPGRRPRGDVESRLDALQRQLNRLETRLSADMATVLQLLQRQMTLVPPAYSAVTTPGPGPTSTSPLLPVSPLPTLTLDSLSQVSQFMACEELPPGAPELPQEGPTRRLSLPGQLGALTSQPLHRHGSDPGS

| SMILES | hERG current change (%, negative = inhibition) at 1uM |
| --- | --- |
| NC(=O)c1cc(S(=O)(=O)NCc2ccccc2)cs1 | 18.4% |
| COc1ccc2c(OC)cc(=O)n(C)c2c1 | 11% |
| COc1ccc(C(=O)OCC(=O)Nc2ccc(OC(F)F)cc2)c(OC)c1 | -12.6% |
| Cc1cc(C)c(OCC(=O)OCC(=O)N2CCCc3ccccc32)c(C)c1 | 14.3% |
| COC(=O)c1ccc(Oc2cc(C)nc(NCc3ccccc3)n2)cc1 | 8.18% |
| CCCOc1ccc(CNC(=O)c2ccc3nc(N4CCOCC4)sc3c2)cc1 | 12.7% |
| CCCc1cc(-c2n[nH]c(=S)n2CC)cs1 | -10.7% |
| COCC(=O)Nc1nc2ccc(C)cc2s1 | 10.2% |
| CC1CCc2c(sc3nc(CSc4nnnn4C)[nH]c(=O)c23)C1 (stereo not drawn) | -1.16% |
| CCCCN(CC)CCNC(=O)c1cc2c(=O)[nH]c3ccc(C)cc3c2s1 | 11% |
| CC(=O)c1ccc(N2CCN(C(=O)CCNC(=O)Cn3ccc4ccccc4c3=O)CC2)cc1 | 19.5% |
| CS(=O)(=O)N(CC(=O)N1CCCC1)Cc1ccc(Cl)c(Cl)c1 | 9.83% |
| CC(C)(C)n1nnnc1C(c1cccs1)N(Cc1cccnc1)Cc1ccco1 (stereo not drawn) | 2.32% |
| COc1ccc(OC)c(/C=N/Nc2nc(C)cc(=O)[nH]2)c1 | 16.4% |
| COc1ccc(N2CCN(C(=O)c3ccc(CS(=O)c4cccc(C)c4)o3)CC2)cc1 (stereo not drawn) | 1.81% |
| Cc1ccc(C(=O)COc2ccccc2C(=O)Nc2ccccc2)cc1 | 7.64% |
| CS(=O)(=O)O.NC(=Nc1ccccc1)NC(=O)c1nc(Cl)c(N)nc1N | -13.3% |
| COCCCNC(=O)CCS(=O)(=O)Cc1ccc(C)cc1 | -0.724% |
| COc1ccc(N2CCN(C(=O)CCc3nnc4ccc(N5CCC(C)CC5)nn34)CC2)cc1 | -13% |
| CC1(C)SC[C@H](C(=O)Nc2cccc(Cl)c2)N1C=O | 6.92% |
| S=C1N[C@H]2CCCC[C@@H]2N1 | 16.5% |
| CCCCCCCOc1ccc(C2CC(=O)N(C)C2=O)cc1 (stereo not drawn) | 14.4% |
| CN1CCC(=NNC(=O)CSc2ccc(Cl)cc2)CC1 | 7.18% |

| SMILES | hERG current change (%, negative = inhibition) at 1uM |
| --- | --- |
| O=C(O)C(=O)O.OCCNCCSc1nc(C2CCCCC2)n(-c2ccccc2Cl)n1 | 2.22% |
| Cc1cc(C)n(C2CCCCC2OC(=O)c2ccccc2F)n1 (stereo not drawn) | 10.6% |
| C=CCSc1nnc(-c2ccccc2NC(C)=O)c(=O)[nH]1 | -3.54% |
| CC(=O)Nc1c(O)c2cccc3c2n(c1=O)CCC3 | 9.36% |
| COc1ccc(CN2C(=O)c3cccnc3C2=O)cc1S(=O)(=O)N(C)Cc1ccco1 | 8.11% |
| CC(=O)N1C(C(=O)O)Cc2c([nH]c3ccccc23)C1(C)C (stereo not drawn) | 15.2% |
| O=C(Nc1cccc2oc(=O)ccc12)c1ccc([N+](=O)[O-])cc1[N+](=O)[O-] | -15.3% |
| COc1ccc(N(CC(=O)Nc2cc(Cl)ccc2C)S(=O)(=O)c2c(C)n[nH]c2C)cc1 | 14.4% |
| CC(Sc1nnc2ccccn12)C(=O)Nc1ccc(Cl)cn1 (stereo not drawn) | 4.55% |
| C/C(Cn1nc([N+](=O)[O-])cc1C)=N\NC(=O)c1cccc(Br)c1 | -2.35% |
| COc1cccc(/C=N\NS(=O)(=O)c2ccccc2)c1OC | 12.6% |
| Cc1ccccc1CC(=O)Nc1ccc(S(=O)(=O)N2CCN(C)CC2)cc1 | 5.26% |
| Cn1c(=O)n(CC(=O)NC2CCCCC2)c(=O)c2ccccc21 | 4.82% |
| CC1CCCC(NC(=O)COC(=O)/C=C/c2ccc3c(c2)OCO3)C1C (stereo not drawn) | 5.74% |
| O=C(CN1CCCCCC1)N/N=C/c1cccc(Cl)c1 | -6.47% |
| COc1ccc(-c2n[nH]c(C)c2-c2ccc(Cl)cc2)c(O)c1OC | 11.1% |
| Cn1c(=O)c(C(=O)CN2CCCCC2)c(N)n(Cc2ccccc2)c1=O | 6.17% |
| CC(=O)O.Cc1ccc(OCCCSc2n[nH]c(N)n2)cc1 | 14.6% |
| COc1ccccc1N(CC(=O)Nc1ccccc1C(=O)N1CCOCC1)S(C)(=O)=O | 17% |
| COc1ccc2[nH]c3c(c2c1)CCN1C(=O)N([C@@H](C)C(=O)NCc2ccccc2OC)C(=O)[C@]31C | 10.2% |
| CCCCNC(=O)CSc1nnc(Cc2ccccc2)n1CC | -1.86% |
| CN(C)Cc1c(O)c(Cl)cc2c3c(c(=O)oc12)CCCC3 | 13.6% |
| CCOC(=O)C1(CCOc2ccccc2)CCN(Cc2ccc(O)cc2)CC1 | -84.8% |

| SMILES | hERG current change (%, negative = inhibition) at 1uM |
| --- | --- |
| COc1cc([C@@H]2CC=C(C(=O)O)[C@H](c3cccc(Cl)c3)N2S(=O)(=O)c2ccc(C)cc2)cc(OC)c1OC | 18.4% |
| S=c1[nH]c2ccc3ccccc3c2[nH]1 | 13.3% |
| COC(=O)C1=C(C)NC(=O)/C1=C\c1cc(C)n(-c2cc(C)cc(C)c2)c1C | 9.19% |
| CCCCN1CC(=O)N2[C@H](c3ccc(OC)cc3)[C@@H]3C(=O)N(CC)C(=O)[C@@H]3[C@]2(C)C1=O | 8.13% |
| CCCC(c1nnnn1Cc1ccco1)N1CCN(C(=O)c2ccco2)CC1.Cl (stereo not drawn) | 3.99% |
| O=S(=O)(c1ccc(SCc2ccccc2)nc1)N1CCCCC1 | 11.2% |
| Cc1cccc(N2C(=O)CC(c3ccc(F)cc3)C3=C2COC3=O)c1 (stereo not drawn) | -1.02% |
| CCOC(=O)CSc1ccc2nnc(-c3cccs3)n2n1 | -25.7% |
| CCOc1c2ccc(C(=O)NCc3ccc(C(F)(F)F)cc3C(F)(F)F)cc2nn1C | 1.01% |
| Brc1ccc(CNc2nc3ccccc3n2CCN2CCCCC2)cc1 | 11.1% |
| CC(=O)c1cccc(NC(=O)Nc2ccc(C(=O)N3CCCC3)cc2)c1 | 10.2% |
| CCOC(=O)N/N=C(/C)c1ccc([N+](=O)[O-])o1 | 10.7% |
| N#CCCn1nc(-c2ccc(Br)cc2)cc1Nc1ccccc1NC(=O)C(F)(F)F | 16.1% |
| Cn1ncc2c(=O)[nH]cnc21 | 15.2% |
| O=C(c1cc(COc2cccc3cnccc23)on1)N1CCCC(CCCO)C1 (stereo not drawn) | -9.49% |
| COCc1cc(C)nc(SCc2ccc(F)cc2)c1C#N | 11.7% |
| COc1ccc(C(CNC(=O)CSc2ccccc2C)N(C)C)cc1 (stereo not drawn) | 14.6% |
| COC(=O)[C@H](C)NC(=O)NCc1ccco1 | 3.77% |
| O=C(CSc1nnc(-c2ccc(S(=O)(=O)N3CCOCC3)cc2)o1)c1ccccc1F | 6.24% |
| Cc1noc(C)c1C(=O)OCC(=O)N1CCN(S(=O)(=O)c2ccc3ccccc3c2)CC1 | -0.987% |
| COc1ccccc1NC(=O)c1ccccc1Nc1ccccc1 | 13.8% |
| Cc1cc2cc(CN(C(=O)C3CC3)C3CCCC3)c3nnnn3c2cc1C | 5.24% |
| c1ccc(CCNc2ncnc3scc(C4COc5ccccc5O4)c23)cc1 (stereo not drawn) | 15% |

| SMILES | hERG current change (%, negative = inhibition) at 1uM |
| --- | --- |
| CCc1ccc(Nc2nnc(SCC(=O)Nc3sccc3C(N)=O)s2)cc1 | 12.1% |
| CC(=O)Nc1ccc(S(=O)(=O)Nc2ccc3c(c2)OCCO3)cc1 | 12.8% |
| CCCCOc1ccc(CSc2nncn2N)cc1 | 4.79% |
| CC1CCN(S(=O)(=O)c2cccc(C(N)=O)c2)CC1 | -4.37% |
| Nc1nnc(-c2ccc(F)cc2)s1 | 0.523% |
| Cc1ccc(NC(=O)C2=C(O)c3sccc3N(C)S2(=O)=O)cc1 | 18.9% |
| COc1ccc(CCNC(=O)c2ccc(CN3CCC(Cc4ccccc4)CC3)cc2)cc1 | 18.2% |
| O=C(Nc1ccc(Cl)cc1)Nc1csc([N+](=O)[O-])c1 | 15.3% |
| O=c1nc(/C=C/c2cc([N+](=O)[O-])ccc2Cl)cc(C(F)(F)F)[nH]1 | 9.45% |
| S=C(NCc1ccco1)N1CCN(C/C=C/c2ccccc2)CC1 | -5.33% |
| Cc1nnc(SCC(=O)NNC(=O)c2ccc(Br)cc2)n1C | 31.8% |
| COc1ccc(S(=O)(=O)NC2CCCCC2)cc1C(=O)N1CCCCC1 | 0.2% |
| O=C1c2oc3ccc(F)cc3c(=O)c2C(c2cccc(O)c2)N1CCCN1CCOCC1 (stereo not drawn) | 9.73% |
| Cc1cc2[nH]c(=O)c(=O)[nH]c2cc1S(=O)(=O)Nc1ccccc1F | 3.1% |
| COc1ccc(OC)c(NC(=S)NCc2cccs2)c1 | -2.84% |
| O=C(O)C1C2CCCCC2=C2CCCCC2C1C(=O)c1ccccc1 (stereo not drawn) | 9.67% |
| O=C(NCCc1ccc(Cl)cc1)c1ncn[nH]1 | 10.5% |
| Cc1ccc(O)c(C(=O)c2cc(C#N)c(=O)n(-c3c(C)n(C)n(-c4ccccc4)c3=O)c2)c1 | 6.74% |
| COc1cccc(C(=O)O/N=C(\N)c2ccccn2)c1 | 3.87% |
| COc1ccc(OCCN2CCN(C(=O)c3ccc(OC)c(OC)c3)CC2)cc1 | -35.6% |
| O=S(=O)(c1cccc(C(F)(F)F)c1)N1CCC(c2cc(-c3cccc4ccccc34)n[nH]2)CC1 | 11.5% |
